*1 amine or outer side, *2 acyl side, *3 side chain or, on linkers, in order; H or OH if unused. Where a SMILES comes first, the peptide text is derived from it. [ ]: non-standard residue; d: D form. The star is where a group is joined. ξ: configuration not given here. ξ(3-Amino-2-oxopentanoyl) = CCC(N[*:1])C(=O)C(=O)[*:2]; Pro(3S,4R-CMe2) = CC1(C)[C@H]2[C@@H](C(=O)O)NC[C@H]21; Pro(4,4-S(CH2)3S) = O=C(O)[C@@H]1CC2(CN1)SCCCS2; ξLeu(ψCOCO) = CC(C)CC(N[*:1])C(=O)C(=O)[*:2]; ξPro(4R-OtBu) = CC(C)(C)O[C@H]1CNC(C(=O)O)C1; Benzoyl(3-COOH) = O=C(O)c1cccc(C(=O)*)c1; Oic(3aξ,7aξ) = O=C(O)[C@@H]1CC2CCCCC2N1; Isobutyloxycarbonyl = CC(C)COC(=O)*; Cyclopentylacetyl = O=C(CC1CCCC1)*; X6 = C=CCCC(N[*:1])C(=O)C(=O)[*:2]; Igl = N[C@H](C(=O)O)C1Cc2ccccc2C1; X4 = CCCCC(N[*:1])C(=O)C(=O)[*:2]; Hyp = O=C(O)[C@@H]1C[C@@H](O)CN1; X2 = CCCC(N[*:1])C(=O)C(=O)[*:2]; Chg = N[C@H](C(=O)O)C1CCCCC1; Phg = N[C@H](C(=O)O)c1ccccc1; Tle = CC(C)(C)[C@H](N)C(=O)O; X24 = CC(=O)c1ccccc1C(=O)*; X79 = CC(Cc1ccccc1)C(=O)*; ξChg = NC(C(=O)O)C1CCCCC1; ξPhg = NC(C(=O)O)c1ccccc1; Cbz = O=C(OCc1ccccc1)*; PhAc = O=C(Cc1ccccc1)*; Boc = CC(C)(C)OC(=O)*; X53 = CC1CCCCC1C(=O)*; ξNle = CCCCC(N)C(=O)O; CO = O=C([*:1])[*:2]; NHtBu = CC(C)(C)N*; ξP = O=C(O)C1CCCN1; Bn = c1ccc(C*)cc1; OtBu = CC(C)(C)O*; tBu = CC(C)(C)*; OPr = CCCO*
Each compound was assayed against HCV NS3/NS4A protease (strain 1a) (Hepatitis C virus genotype 1a, UniProt P27958) (assay: biochemical). Conditions: Compounds prepared by Solid Phase Synthesis, Table 3; read-out: Ki* CLASS.

Compound	Ki [nM]
CCCC(NC(=O)[C@@H]1C[C@@H](OC(C)(C)C)CN1C(=O)[C@@H](NC(=O)Cc1ccccc1)C1CCCCC1)C(=O)C(=O)NCC(=O)N[C@H](CC(=O)OC(C)(C)C)C(N)=O (some centres unmarked) (PhAc-[Chg][Hyp](tBu)[X2]G[dD](OtBu)-NH2)	> 1000
CCCC(NC(=O)[C@@H]1C[C@@H](OC(C)(C)C)CN1C(=O)[C@@H](NC(=O)c1c(F)c(F)c(F)c(F)c1C(=O)O)C1CCCCC1)C(=O)C(=O)NCC(=O)NC(C(N)=O)c1cccc2c1OCO2 (some centres unmarked)	101 to 1000
CCCCC(NC(=O)CNC(=O)C(=O)C(CCC)NC(=O)[C@@H]1C[C@@H](OCc2ccccc2)CN1C(=O)C(NC(=O)C(C)Cc1ccccc1)C1CCCCC1)C(N)=O (some centres unmarked) (X79-[ξChg][Hyp](Bn)[X2]G[ξNle]-NH2)	> 1000
CCCCC(NC(=O)[C@@H]1C[C@@H](OCc2ccccc2)CN1C(=O)C(NC(=O)C1CCCCC1C)C1CCCCC1)C(=O)C(=O)NCC(=O)NC(C(N)=O)c1ccccc1 (some centres unmarked) (X53-[ξChg][Hyp](Bn)[X4]G[ξPhg]-NH2)	101 to 1000
CC(C)CC(NC(=O)[C@@H]1C[C@@H](OC(C)(C)C)CN1C(=O)[C@@H](NC(=O)c1cccc(C(=O)O)c1)C1CCCCC1)C(=O)C(=O)NCC(=O)N[C@H](C(N)=O)c1ccccc1 (some centres unmarked) ({Benzoyl(3-COOH)}-[Chg][Hyp](tBu)[ξLeu(ψCOCO)]G[Phg]-NH2)	> 1000
CCCC(NC(=O)[C@@H]1C[C@@H](OCc2ccccc2)CN1C(=O)C(NC(=O)CC1CCCC1)C1CCCCC1)C(=O)C(=O)NCC(=O)NC(C(N)=O)c1ccccc1 (some centres unmarked) (Cyclopentylacetyl-[ξChg][Hyp](Bn)[X2]G[ξPhg]-NH2)	101 to 1000
CCCCC(NC(=O)C1CCCN1C(=O)[C@@H](NC(=O)OC(C)(C)C)C1CCCCC1)C(=O)C(=O)NCC(=O)N[C@H](C(N)=O)C1CCCCC1 (some centres unmarked) (Boc-[Chg][ξP][X4]G[Chg]-NH2)	> 1000
CCC(NC(=O)[C@@H]1C[C@@H](OC(C)(C)C)CN1C(=O)[C@@H](NC(=O)c1ccccc1C(C)=O)C1CCCCC1)C(=O)C(=O)NCC(=O)N[C@H](C(N)=O)c1ccccc1 (some centres unmarked) (X24-[Chg][Hyp](tBu)[ξ(3-Amino-2-oxopentanoyl)]G[Phg]-NH2)	> 1000
CCCCC(NC(=O)CNC(=O)C(=O)C(CCC)NC(=O)[C@@H]1C[C@@H](OCc2ccccc2)CN1C(=O)C(NC(=O)OCC(C)C)C1CCCCC1)C(N)=O (some centres unmarked) (Isobutyloxycarbonyl-[ξChg][Hyp](Bn)[X2]G[ξNle]-NH2)	101 to 1000
CCCCC(NC(=O)C1C[C@@H](OC(C)(C)C)CN1C(=O)[C@@H](NC(=O)OC(C)(C)C)C1CCCCC1)C(=O)C(=O)N[C@@H](C)C(=O)N[C@H](C(N)=O)C1CCCCC1 (stereo partly drawn) (Boc-[Chg][ξPro(4R-OtBu)][X4]A[Chg]-NH2)	> 1000
CCCC(NC(=O)[C@@H]1C[C@@H](OCc2ccccc2)CN1C(=O)C(NC(=O)Cc1ccccc1)C1CCCCC1)C(=O)C(=O)NCC(=O)NC(C(=O)O)c1ccccc1 (some centres unmarked) (PhAc-[ξChg][Hyp](Bn)[X2]G[ξPhg]-OH)	1 to 100

Same assay, conditions: HCV protease continuous assay results, Table 1; read-out: Ki* Range

Compound	Ki [nM]
CCCC(NC(=O)[C@@H]1CCCN1C(=O)[C@@H](NC(=O)[C@H](CC(C)C)NC(=O)OCc1ccccc1)C1CCCCC1)C(=O)C(=O)NCC(=O)O (some centres unmarked) [Example 55] (Cbz-L[Chg]P[X2]G-OH)	> 1000
CCCC(NC(=O)[C@@H]1CC2CCCCC2N1C(=O)[C@@H](NC(=O)OCC(C)C)C1CCCCC1)C(=O)C(=O)NCC(=O)NC(C(=O)O)c1ccccc1 (some centres unmarked) [Example 89] (Isobutyloxycarbonyl-[Chg][Oic(3aξ,7aξ)][X2]G[ξPhg]-OH)	101 to 1000
CCCC(NC(=O)[C@@H]1C[C@@H](OCc2ccccc2)CN1C(=O)[C@@H](NC(=O)CC(C)CC(=O)O)C1CCCCC1)C(=O)C(=O)NCCCC(C(N)=O)c1ccccc1 (some centres unmarked) [Example 93]	> 1000
CCCOC(=O)CNC(=O)C(=O)C(CCC)NC(=O)[C@@H]1C[C@@H]2CCCC[C@@H]2N1C(=O)OC(C)(C)C (some centres unmarked) [Example 45]	> 1000
CCCC(NC(=O)[C@@H]1CC2(CN1C(=O)C(NC(=O)OCC(C)C)C1CCCCC1)SCCCS2)C(=O)C(=O)NCC(=O)NC(C(=O)OC(C)(C)C)c1ccccc1 (some centres unmarked) [Example 87] (Isobutyloxycarbonyl-[ξChg][Pro(4,4-S(CH2)3S)][X2]G[ξPhg]-OtBu)	101 to 1000
CCCOC(=O)CNC(=O)C(=O)C(CCC)NC(=O)[C@@H]1CCCN1C(=O)[C@@H](NC(=O)[C@@H](NC(=O)OC(C)(C)C)C(C)(C)C)C(C)C (some centres unmarked) [Example 61] (Boc-[Tle]VP[X2]G-OPr)	> 1000
C=CCOC(=O)CNC(=O)C(=O)C(CCC)NC(=O)[C@@H]1CC2(CN1C(=O)C(NC(=O)OCC(C)C)C1CCCCC1)SCCS2 (some centres unmarked) [Example 74]	> 1000

Same assay, conditions: Table 5; HCV NS3/NS4A protease, 30° C., pH 6.5; read-out: Ki* Range

Ki [nM]	Compound
101 to 1000	C=CCNC(=O)C(=O)C(CCC)NC(=O)[C@@H]1[C@@H]2[C@H](CN1C(=O)[C@@H](NC(=O)NC(C)(C)C)C(C)C)C2(C)C (some centres unmarked)
1 to 100	C=CCCC(NC(=O)[C@@H]1[C@@H]2[C@H](CN1C(=O)[C@@H](NC(=O)OC(C)(C)C)C1CCCCC1)C2(C)C)C(=O)C(=O)NCCC(=O)OC(C)(C)CC (some centres unmarked)
101 to 1000	C=CCNC(=O)C(=O)C(CCC)NC(=O)[C@@H]1C2C(CN1C(=O)[C@@H](NC(=O)NC1CCCCC1)C1Cc3ccccc3C1)C2(C)C (some centres unmarked)
1 to 100	C=CCCC(NC(=O)[C@@H]1C2C(CN1C(=O)[C@@H](NC(=O)OC(C)C)C1Cc3ccccc3C1)C2(C)C)C(=O)C(=O)NCC=C (some centres unmarked)

Same assay, conditions: Table 5; HCV NS3/NS4A protease, spectrophotometric assay, 30° C., pH 6.5; read-out: Ki* Range

Compound	Ki [nM]
C=CCCC(NC(=O)[C@@H]1[C@H]2[C@@H](CN1C(=O)[C@@H](NC(=O)NC(C)(C)C)C1Cc3ccccc3C1)C2(C)C)C(=O)C(=O)NCC(=O)N[C@H](C(=O)N(C)C)c1ccccc1 (stereo partly drawn) ({NHtBu-CO}-[Igl][Pro(3S,4R-CMe2)][X6]G[Phg]-NMe2)	1 to 100
C=CCNC(=O)C(=O)C(CCC)NC(=O)[C@@H]1[C@H](c2ccccc2)CN1C(=O)C(NC(=O)OC(C)(C)C)C1CCCCC1 (some centres unmarked)	> 1000

Next, values leading:

Ki [nM]	Compound
> 1000	CCCCC(NC(=O)[C@@H]1CC(C)(C)CN1C(=O)[C@@H](NC(=O)OC(C)(C)C)C(C)(C)C)C(=O)C(=O)OC (some centres unmarked)
1 to 100	CC1(C)[C@H]2[C@@H](C(=O)NC(CC3CC3)C(=O)C(N)=O)N(C(=O)[C@@H](NC(=O)NC3CCCCC3)C3Cc4ccccc4C3)C[C@H]21 (some centres unmarked)
> 1000	C=CCCC(NC(=O)[C@@H]1C2C(CN1C(=O)[C@@H](NC(=O)OC(C)(C)C)C(C)(C)C)C2(C)C)C(=O)C(=O)NCCCOCC (some centres unmarked)
101 to 1000	C=CCNC(=O)C(=O)C(CCC)NC(=O)[C@@H]1[C@H]2[C@@H](CN1C(=O)[C@@H](NC(=O)OC(C)C(C)C)C1Cc3ccccc3C1)C2(C)C (some centres unmarked)
101 to 1000	CC(C)(C)OC(=O)N[C@H](C(=O)N1C[C@H]2[C@@H]([C@H]1C(=O)NC(CC1CC1)C(=O)C(=O)O)C2(C)C)C1CCCCC1 (some centres unmarked)
1 to 100	CC(C)(C)OC(=O)N[C@H](C(=O)N1C[C@H]2[C@@H]([C@H]1C(=O)NC(CC1CC1)C(=O)C(N)=O)C2(C)C)C(C)(C)C (some centres unmarked)
101 to 1000	CCCC(NC(=O)[C@@H]1[C@H]2[C@@H](CN1C(=O)[C@@H](NC(=O)OC(C)C)C(C)(C)C)C2(C)C)C(=O)C(N)=O (some centres unmarked)

Same assay, conditions: Table 6; HCV NS3/NS4A protease, 30° C., pH 6.5; read-out: Ki*

Ki [nM]	Compound
101 to 1000	CC(C)(C)[C@H](NC(=O)OC(CF)CF)C(=O)N1C[C@H]2[C@@H]([C@H]1C(=O)NC(CC1CCC1)C(=O)C(N)=O)C2(C)C (some centres unmarked)
101 to 1000	CC(C)(C)NC(=O)N[C@H](C(=O)N1C[C@H]2[C@@H]([C@H]1C(=O)NC(CC1CCC1)C(=O)C(N)=O)C2(C)C)C1(C)CC1 (some centres unmarked)
1 to 100	CC(C)(C)[C@H](NC(=O)OC(C)(C)C(F)(F)F)C(=O)N1C[C@H]2[C@@H]([C@H]1C(=O)NC(CC1CC1)C(=O)C(=O)NCC(=O)NCc1ccccc1)C2(C)C (some centres unmarked)
101 to 1000	C=CCCC(NC(=O)[C@@H]1[C@@H]2[C@H](CN1C(=O)[C@@H](NC(=O)NC(C)(C)C)C(C)(C)C)C2(C)C)C(=O)C(=O)NCCS(C)(=O)=O (some centres unmarked)

Source: US7592316B2, “Peptides as NS3-serine protease inhibitors of hepatitis C virus” (Schering Corporation, priority 2000, dated 2009)
